The source gives no read counts; variants with many changes may rest on few reads.
B1: LINE1-mini (parent)
chain: GGCAGAGCUCAACACAGCGUGGCAAAGUGGCUGUGGCUAGACUGCC

Variants of: B1
Assay: self-cleavage, relative activity (ratio to wild type); higher = more cleavage; in vitro, sequencing; the parent is a self-cleaving ribozyme

Row | Variant | self-cleavage
1 | GGCUGAGCUCAAAACAGCGUAGCAAAGUGGCUGUGGCUAGACUGCC [A4U C13A G21A] | 0.14
2 | GGCAGAGCUCAUCACAGCGUGCCAAAGUGGCUGUGGCUAUACAGCC [A12U G22C G40U U43A] | 0.04
3 | GGCUGAUCUCAACACUGCGUGGCAAAGUGGUUGUGGCUAGACUGCC [A4U G7U A16U C31U] | 0.12
4 | GGCAGAGUUCAACACAGCGUGGCAAAGUGGCUGUGUCUAUAGUGGC [C8U G36U G40U C42G C45G] | 0.26
5 | GGCAGAGGUCAACACAGCAUGGCAAAGUGGCUGUGGUUAGACUGCC [C8G G19A C37U] | 0.05
6 | GGAAGAGCUCAACACAGCGUGGCAAAGUGGCUGUGGCUAGAUUGCU [C3A C42U C46U] | 0.14
7 | GGCAGAGCUCUACACAGCGUGGCAAAGUUGCUGGGGCUAGACUGCC [A11U G29U U34G] | 0
8 | GGCGGGGCUCAACACAGAGUGGCAAAAUGGUUGUGGUCAGACUGCC [A4G A6G C18A G27A C31U C37U U38C] | 0.01
9 | GGCAGAGCUCAACACAGCGGGGCAAAGUGGGUGUGGCUAAAAUGCC [U20G C31G G40A C42A] | 0.02
10 | GGUAGAGCUCAAUACAGCAUGGCAAAGUGGCUGUGGCUAGACUGCC [C3U C13U G19A] | 0.28
11 | GGCAGAGCUAAACACAGCGUAGCGAAGUGGCUGUGGCUAGACUGCC [C10A G21A A24G] | 0.35
12 | GGCAGAGCGCAACACUGCGUGGCAAAGUGGCGGUGGCUAGACUGUC [U9G A16U U32G C45U] | 0.07
13 | GGCAGAGCUCAACACAGCGUGGGAAAGAGGCUGUGGCUUGACAGCA [C23G U28A A39U U43A C46A] | 0.01
14 | GGCAGAGCUCAACAGAGCCUGGCAAAAUGGUUGUGGCUAGACUGCC [C15G G19C G27A C31U] | 0.16
15 | GGCAGAGCUCAACUCAGCGUGGCCAAAUGGCUGUGGCUAGACUCCC [A14U A24C G27A G44C] | 0.12
16 | GGCAGAGCCCAACACAGCGCGGCAAAGUGGCUGUGGCUAGACUGCA [U9C U20C C46A] | 0.02
17 | GGCACAGCUCAACACAGCAUGGCAAAGGGGCUGUGGCUAGACUGCC [G5C G19A U28G] | 0.01
18 | GGCAGAGCUCAGCACACCGUGGCAAAGUGGGUGUGGCUAGACUGCC [A12G G17C C31G] | 0
19 | GGCAGAGCUCAACACAGCGUGGCAAAGUGGCGGUGGUUAGACUGGC [U32G C37U C45G] | 0.07

Row | Variant | self-cleavage
20 | GGCAGAGCUCAACACAGCGUGGCUAACUGGCUGUGGCUAGACUGCA [A24U G27C C46A] | 1.55
21 | GGCAGAGCUCAACACCGCGUGGCAAAGUUGCUGUGGCUGGACUGCC [A16C G29U A39G] | 0.08
22 | GGCAGAGCUCAACACAGCGUGGCAAAAUGGUUGUAGCUAGACUGCC [G27A C31U G35A] | 0.04
23 | GGCAGAGCCCAUCACAGCGUGGCAAAGUGGCUGUGGCUAGGCUGCC [U9C A12U A41G] | 0.02
24 | GGCAGAGCUCGACACAGCGUGGUAAAGUGGCGGUGGCUAGACUGCC [A11G C23U U32G] | 0.02
25 | GGCAGAGCUCUCCACAGCGUGGCAAAGUGGCUGCGGCUAGACUUCC [A11U A12C U34C G44U] | 0.04
26 | GGCAGAGCUCAACACAGCGUGGCGAAGUGGCUGUUGCUAUACUGCC [A24G G35U G40U] | 0.12
27 | GGCCGAGCUCAAGACAGCGUGGCAAGGUGGCUGUGGCUAGACUGCC [A4C C13G A26G] | 0.1
28 | GGCAGUGCUCAACACAGCGUGGCAAAGUGGUUGUUGCUAGACUGCC [A6U C31U G35U] | 0.05
29 | UGCAGCGCUCUACACAGCGUGGCAAAGUGGCUGUGGCUAGACUGCC [G1U A6C A11U] | 0.01
30 | GGUAGAGCUCAACGCAGCCUGGCAACGUGGCCGUGGCUAGACUGCC [C3U A14G G19C A26C U32C] | 0.03
31 | GGCAGAACUCAACACACCGUGGCAAAGUGGCUGUGCCUAGACUGCC [G7A G17C G36C] | 0.13
32 | GGCAGAGCUAAACACAGCGUGACAAAGUGGCUGUGGUUAGACUGCC [C10A G22A C37U] | 0.02
33 | GGCAGACCUCAACACAGCGUGGCAAAGUGGUCGUGGCAAGACUGCC [G7C C31U U32C U38A] | 0.04
34 | GGGAGAGCUCAGCACAACGUUGCAAAGUGGCUGUGGGUAGACUGCC [C3G A12G G17A G21U C37G] | 0.34
35 | GGCAGAGCUUAACACAGCGAGGCAAAGUGGCUGUCGCUAGACUGCC [C10U U20A G35C] | 0.04
36 | GGCAGAGCUCAUCACAGCGUGGGAAAGUGGCUGUGGCGCGACUCCC [A12U C23G U38G A39C G44C] | 0.01
37 | GGCAGGGCUCAACACAGCGUGGCUAAGUGGCUGUGGCUAGACAGCC [A6G A24U U43A] | 0.05
38 | UGCAGUGCUCAAUACAGCGUGGCAAAGUGGCUGUGGCUAGACUGCC [G1U A6U C13U] | 0

Row | Variant | self-cleavage
39 | GGCAGAGCUCAACACAGGGGGGUAAAGUGGCUGUGGCUAGACUACC [C18G U20G C23U G44A] | 0.24
40 | GGCAGGGCUCAACACAGAUUGGCAAAGUGGCUGUGGCUAGACCGCC [A6G C18A G19U U43C] | 0.03
41 | GGUAGAGCUCAACACAGCGUAGCAAAGUGGCUGUGGCUAGAUUGCC [C3U G21A C42U] | 0.35
42 | GGCAUAGCUCAACACAGCAUGGCAAAGUGGCUUUGGCUAGAAUGCC [G5U G19A G33U C42A] | 0.02
43 | GGCAGAGGUCAAAAUAGCGUGGCAAACUGGCUGAGGCUAGACUGCU [C8G C13A C15U G27C U34A C46U] | 0.11
44 | GGCGGAACGCAACACAGCGUGGCAAAGUGGCUGUGGCUAGACUGCC [A4G G7A U9G] | 0.07
45 | GGCAGCGCUCCACACAGCGUGGCAAAGUGCAUGUGGCUAGACUGCC [A6C A11C G30C C31A] | 0.02
46 | GGCAGAGCUCAACACAGCGUGGCAAAAUGGCUGCGGCGAGACUGCC [G27A U34C U38G] | 0.01
47 | GGCGGAGCUCAAGACAGCGUGGCGAACUGGCUGUGGCUAGACAGCC [A4G C13G A24G G27C U43A] | 0.19
48 | GGCAGAGCUCAACACAGGGUGGCAAAGAGGCUGAGGCUAGACUACC [C18G U28A U34A G44A] | 0.21
49 | GGUAGAGCUCAACACACCGUUGCAAAGUGGCUGUGGCGAGACUGCC [C3U G17C G21U U38G] | 0.01
50 | GGGAAAGCUCAACACAGCGUGGCAAAGUGGCUGUGCCUAGACUGCC [C3G G5A G36C] | 0.39
51 | GGCUGAGAUCAACACAGCGUGGCAAAGUGGCUGUGACUAGACUGCC [A4U C8A G36A] | 0.22
52 | GGCAGUGCUCAAAACAGCGUGGCAAAGUGGCUGUGGCUAGACCGGC [A6U C13A U43C C45G] | 0.37
53 | GGCAGAGCUCAACACAGCGUGGCAGAAGGGCUGUGGCUAAACUGCC [A25G G27A U28G G40A] | 0.08
54 | GGCAGAGCUCAACACAGCGUGCCAAGGUGGCUGUGGCUAGACCGCC [G22C A26G U43C] | 0.29
55 | GGCAGAGCUCAACACAGUGUGGGUAAGUGGCUGUUGCUAGACUGCC [C18U C23G A24U G35U] | 0.06
56 | GGCAGAGCUCAGCACAGCGGGGCAAAGUGGCUUUGGCUAGACUGCC [A12G U20G G33U] | 0.05

Reference: the RNAGym collection of RNA variant scans (doi:10.7554/elife.90254)
